Test results reported in PubChem BioAssay AID504332 (National Center for Advancing Translational Sciences (NCATS), 2011).
Among all 350,000 compounds or so, about 31,000 (8.9%) were called active. This list was built around the results that the source calls inconclusive (neither active nor inactive); the mix of calls is not that of the screen. Calls come from the whole dose curve; as a rule, active = well fitted inhibition curve with a large enough effect; inconclusive = small, poorly fitted or top-dose-only effect; inactive = no such curve, though single readings can be large or run the other way. Potencies of inconclusive entries are doubtful fits and often do not repeat.

Target: Histone-lysine N-methyltransferase EHMT2 (Homo sapiens) (UniProt Q96KQ7)
Experiment: qHTS Assay for Inhibitors of Histone Lysine Methyltransferase G9a; note: nearly all actives have a fitted effect of over 75% in size
Details: G9a H3K9 monomethylation, AlphaScreen, 2 h; activity, negative = inhibition: at 59 µM (top of the series) unless noted
Summary of the method: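 G9a (20 nM) preincubated 15 min RT with compounds, then 500 nM biotinylated H3K9 peptide and 20 uM SAM added; 2 h RT reaction. Monomethyl-H3K9 product detected by AlphaScreen with anti-H3K9me1 antibody, streptavidin donor and anti-rabbit IgG acceptor beads.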
% is set by controls: 0 for no effect and ±100 for the full control effect; potency is the fitted concentration of half-maximal effect; tags give direction and shape of the fitted curve.

Chain of UniProt Q96KQ7 (Q96KQ7 whole entry, looked up): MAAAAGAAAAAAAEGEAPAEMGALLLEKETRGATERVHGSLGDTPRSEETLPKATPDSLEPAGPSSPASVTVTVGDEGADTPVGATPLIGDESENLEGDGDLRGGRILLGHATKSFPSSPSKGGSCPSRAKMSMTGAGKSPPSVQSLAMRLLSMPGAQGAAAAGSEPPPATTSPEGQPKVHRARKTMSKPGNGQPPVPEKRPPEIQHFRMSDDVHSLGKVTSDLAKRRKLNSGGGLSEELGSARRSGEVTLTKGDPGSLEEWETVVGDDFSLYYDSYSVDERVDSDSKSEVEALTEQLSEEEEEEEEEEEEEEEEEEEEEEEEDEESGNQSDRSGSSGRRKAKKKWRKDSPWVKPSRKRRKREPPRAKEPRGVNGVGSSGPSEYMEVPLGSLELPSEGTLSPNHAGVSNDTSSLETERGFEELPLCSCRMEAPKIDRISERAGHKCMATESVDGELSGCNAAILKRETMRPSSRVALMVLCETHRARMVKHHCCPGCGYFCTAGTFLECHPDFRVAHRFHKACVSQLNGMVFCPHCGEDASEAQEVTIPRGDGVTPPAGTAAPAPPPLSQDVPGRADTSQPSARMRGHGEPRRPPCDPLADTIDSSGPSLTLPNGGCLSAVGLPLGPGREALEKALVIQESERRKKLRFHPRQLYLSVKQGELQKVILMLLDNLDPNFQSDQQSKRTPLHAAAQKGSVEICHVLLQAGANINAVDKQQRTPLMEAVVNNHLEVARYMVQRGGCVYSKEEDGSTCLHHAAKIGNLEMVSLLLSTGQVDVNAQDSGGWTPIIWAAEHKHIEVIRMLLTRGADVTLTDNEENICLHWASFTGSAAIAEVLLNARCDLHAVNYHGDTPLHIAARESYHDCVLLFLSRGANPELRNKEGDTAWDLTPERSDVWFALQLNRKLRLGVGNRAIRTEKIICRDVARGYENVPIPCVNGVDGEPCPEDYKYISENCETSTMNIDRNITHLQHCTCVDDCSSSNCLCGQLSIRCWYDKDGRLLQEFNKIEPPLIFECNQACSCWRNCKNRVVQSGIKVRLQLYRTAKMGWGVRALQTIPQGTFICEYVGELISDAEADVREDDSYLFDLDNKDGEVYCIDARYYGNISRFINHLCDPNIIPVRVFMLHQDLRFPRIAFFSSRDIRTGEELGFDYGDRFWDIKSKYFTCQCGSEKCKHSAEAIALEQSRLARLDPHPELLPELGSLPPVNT

| Compound | Potency | activity, negative = inhibition |
| --- | --- | --- |
| CC1=C(C(=O)OCc2ccccc2)C(c2ccc([N+](=O)[O-])cc2)NC(=O)N1CCCC(=O)O (stereo not given) | active: 44.7 µM |  |
| Cc1ccc(Cc2cnc(N3C(=N)SC(c4ccccc4)C3=O)s2)cc1 (stereo not given) |  | inactive: 1.64% [at 102 µM] |
| Cc1ccc(CN2C(=O)CC(c3ccc(Cl)cc3)c3c(C)nn(-c4nc(C)cc(C)n4)c32)cc1 (stereo not given) |  | inactive: -31.9% |
| Cc1ccc(S(=O)(=O)N(C)C)cc1NC(=O)COC(=O)CNC(=O)C12CC3CC(CC(C3)C1)C2 | inconclusive: 89.1 µM [inhibitor, partial curve, poor fit] |  |
| O=c1cc(CO)oc(C(Nc2ccccn2)c2ccccc2Cl)c1O (stereo not given) | active: 1.12 µM |  |
| CCN(Cc1ccccc1)C(=O)c1c(-c2ccccc2Cl)noc1C | inconclusive: 35.5 µM [inhibitor, single point] |  |
| Cc1[nH]c(-c2ccc(F)cc2)cc1C(=O)N1CCN(c2ccccc2F)CC1 | active: 70.8 µM |  |
| CC(C)c1ccc(N(CC(=O)NCCSCc2ccco2)S(C)(=O)=O)cc1 | inconclusive: 79.4 µM [inhibitor, partial curve, poor fit] |  |
| NC(=O)c1ccsc1NC(=O)Cc1ccc([N+](=O)[O-])cc1 | inconclusive: 89.1 µM [inhibitor, single point] |  |
| CCOc1ccccc1NC(=O)CSc1nc2c(c(=O)n1C)SC(C)C2 (stereo not given) | inconclusive: 79.4 µM [inhibitor, partial curve, poor fit] |  |
| CCOC(=O)c1ccc(OCc2c(C)noc2C)cc1 | inconclusive: 89.1 µM [inhibitor, single point] |  |
| COc1ccccc1NC(=O)C(=O)NCCCN1CCCC1=O | inconclusive: 89.1 µM [inhibitor, single point] |  |
| O=C(NNC(=S)Nc1ccc(Br)cc1Cl)c1ccncc1 | inconclusive: 31.6 µM [inhibitor, single point] |  |
| CCOC(=O)c1c[nH]n(-c2ccccc2)c1=O |  | inactive: -35.9% [at 102 µM] |
| CCCc1nnc(NC(=O)CCS(=O)(=O)Cc2ccccc2)s1 | active: 44.7 µM |  |
| Cc1ccc(-c2csc(=S)[nH]2)cc1 | active: 12.6 µM |  |
| FC(F)(F)c1ccnc(N2CCN(Cc3cnc(-c4ccccc4)[nH]3)CC2)c1 | inconclusive: 8.91 µM [inhibitor, full curve] |  |
| COc1ccc(Nc2nc(-c3cccs3)cs2)cc1 |  | inconclusive: -98.6% [inhibitor] |
| O=C(CSC(=S)N1CCOCC1)c1cc(Br)cc(Br)c1O | active: 79.4 µM |  |
| O=C(Nc1ccc2c(c1)OCCO2)c1ccc(Br)o1 | inconclusive: 17.8 µM [inhibitor, single point] |  |
